Screen size: about 370,000 compounds; about 150 (0.041%) were called active. This list was built around the results that the source calls inconclusive (neither active nor inactive); the mix of calls is not that of the screen. Calls come from the whole dose curve; as a rule, active = well fitted inhibition curve with a large enough effect; inconclusive = small, poorly fitted or top-dose-only effect; inactive = flat fitted curve, though single readings scatter. No potency is given beside an inconclusive call; the fits are too rough.
biological target: Beta-lactamase (Escherichia coli (strain K12)) (UniProt P00811); assay: qHTS Inhibitors of AmpC Beta-Lactamase (assay with detergent); settings: AmpC hydrolysis of nitrocefin, absorbance 480 nm, 0.01% Triton; series mostly up to 114 µM; note: nearly all actives have a fitted effect of over 25% in size
Chain of UniProt P00811 (P00811 whole entry, looked up): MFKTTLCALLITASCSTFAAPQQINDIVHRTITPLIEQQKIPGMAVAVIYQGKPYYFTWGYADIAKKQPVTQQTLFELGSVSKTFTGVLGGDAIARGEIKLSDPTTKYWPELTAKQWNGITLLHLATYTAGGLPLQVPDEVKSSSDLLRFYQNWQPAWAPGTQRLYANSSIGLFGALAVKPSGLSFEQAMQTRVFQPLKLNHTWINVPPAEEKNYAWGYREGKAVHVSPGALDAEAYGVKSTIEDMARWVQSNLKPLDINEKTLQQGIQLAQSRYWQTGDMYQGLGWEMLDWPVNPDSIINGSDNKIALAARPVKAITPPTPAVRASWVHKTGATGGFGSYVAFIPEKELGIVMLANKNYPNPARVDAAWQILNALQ
In short: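 AmpC (5.3 nM in the dispensed reagent) in 20 mM phosphate pH 7.0 with 0.01% (detergent screen) or 0.0001% Triton X-100 was preincubated with compounds for 15 min at room temperature. Nitrocefin was then added from an 800 uM solution, and hydrolysis was followed at 480 nm.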
Potency is the fitted concentration of half-maximal effect; tags give direction and shape of the fitted curve.

Structure (SMILES) | Potency
Cc1cc(=O)oc(C)c1C(=O)OCC(=O)c1ccc(Cl)c(Cl)c1 | inconclusive [inhibitor, single point]
COc1ccc(OC(C)C(=O)Nc2cccnc2)cc1 (centres undefined) | inconclusive [inhibitor, full curve]
COc1ccc(-c2ccc(/C=C3/C(=N)N4C(C)=CSC4=NC3=O)o2)c([N+](=O)[O-])c1 | inconclusive [inhibitor, full curve, poor fit]
O=C(Nc1nsc(-c2ccccc2)n1)c1cccs1 | inactive
COCCNC(=O)CN1CCOc2ccccc21 | inconclusive [inhibitor, full curve, poor fit]
COc1cc(Cl)cc(C(=O)O)c1OCC(=O)O | inactive
CCOC(=O)Cc1csc(NC(=O)CN2CCOCC2)n1 | inactive
O=C(COC(=O)C1CC1)NCc1ccccc1 | inactive
Cc1ccc(NC(NC(=O)c2cccs2)C(Cl)(Cl)Cl)cc1C (centres undefined) | inconclusive [inhibitor, partial curve]
CCCC1=C/C(=C/c2ccc(-c3ccccc3OC)o2)C(=O)O1 | inconclusive [inhibitor, partial curve, poor fit]
O=C(Nc1cccc(F)c1)NC1CCCCC1 | inconclusive [inhibitor, full curve, poor fit]
Cc1cc(C(=O)N2CCCc3ccccc32)no1 | inconclusive [inhibitor, partial curve]
O=C1c2cccc3cccc(c23)C(=O)N1CCN1CCN(CC(O)COc2ccc3ccccc3c2)CC1 (centres undefined) | inconclusive [inhibitor, single point]
CCOc1ccc2[nH]c(=O)c(CN(Cc3cccnc3)C(=O)Nc3ccccc3OC)cc2c1 | inconclusive [inhibitor, full curve, poor fit]
O=C(O)c1ccc(NC(=S)NC2CCCCC2)cc1 | inconclusive [inhibitor, full curve, poor fit]
Cc1ccc(N2C(=O)C(F)(F)C2c2ccccc2)cc1 (centres undefined) | inactive
COc1ccc(C2C(C(=O)Nc3cccnc3)=C(C)Nc3nc(-c4cccs4)nn32)cc1OC (centres undefined) | inconclusive [inhibitor, full curve]
Cn1ccnc1P(=S)(c1nccn1C)c1nccn1C | inconclusive [inhibitor, full curve, poor fit]
CCOC(=O)N/N=C\c1ccc([N+](=O)[O-])o1 | inconclusive [inhibitor, full curve]
COc1ccc(OC)c(NC(=O)c2ccc3c(=O)n(CCc4ccccc4)c(=S)[nH]c3c2)c1 | inconclusive [inhibitor, single point]
Cc1ccc(C)c(OCc2cc(C(=O)N3C[C@@H](C)O[C@@H](C)C3)no2)c1 | inactive
O=C(Nc1cc(Cl)ccc1-n1cncn1)c1cc(F)c(F)c(F)c1F | inconclusive [inhibitor, full curve, poor fit]
COc1ccccc1N1CCN(CC(=O)c2c(C)[nH]c3cc(C)ccc23)CC1 | inconclusive [inhibitor, full curve]

Structure (SMILES) | Potency
COc1cccc(C(=O)NCCS(=O)(=O)NCc2ccc3c(c2)OCO3)c1 | inconclusive [inhibitor, full curve, poor fit]
Cc1ccccc1-c1nc(CS(=O)(=O)CC(=O)Nc2c(C)cccc2C)c(C)o1 | inconclusive [inhibitor, single point]
CCc1ccc2c(c1)c(=O)c(S(=O)(=O)c1ccccc1)cn2CC(=O)Nc1cc(C)ccc1C | inactive
CC(NC(=O)CCNS(=O)(=O)c1ccc2c(c1)oc(=O)n2C)c1ccccc1 (centres undefined) | inconclusive [inhibitor, full curve]
CCn1c(SCC(=O)NCCc2ccccc2)nnc1C(C)C | inconclusive [inhibitor, single point]
CCc1nn2c(=O)cc(COC(=O)c3cccc(NC(=O)COc4ccccc4F)c3)nc2s1 | inactive
O=C(NCc1ccco1)c1ccc(N2CCOCC2)c([N+](=O)[O-])c1 | inactive
CCCN(CC(=O)Nc1ccccc1OC)C(=O)CCCN1C(=O)c2ccccc2C1=O | inconclusive [inhibitor, full curve, poor fit]
COc1c(Br)cc2c(C)c(C(=O)N3CCOCC3)oc2c1Br | inconclusive [inhibitor, full curve, poor fit]
O=S(=O)(Nc1ccc2c(c1)nc1n2CCOC1)c1ccc(Cl)cc1 | inconclusive [inhibitor, single point]
CCc1cccc(NC(=O)Cn2c(=O)n(Cc3ccccc3)c(=O)c3c(C)c(C(=O)N(C)C)sc32)c1 | inactive
CC1(c2ccccc2)CC(c2ccccc2)=Nc2nonc2N1 (centres undefined) | inactive
O=C(/C=C/c1ccco1)OCn1nnc2ccccc2c1=O | inactive
c1csc(C2Nc3ccccc3-c3nc4ccccc4n32)c1 (centres undefined) | inactive
Cc1csc(Cn2c(CN(C)C)nc3ccccc3c2=O)n1 | inconclusive [inhibitor, full curve, poor fit]
COC(=O)CC1COc2ccccc2N1C(=O)c1cccc(C(F)(F)F)c1 (centres undefined) | inconclusive [inhibitor, full curve, poor fit]
CC(=O)c1cccc(NC(=O)C2=CC(c3cccs3)=NS(=O)(=O)N2C)c1 | inactive
CCc1ccc2oc(C(=O)N(Cc3cccc(Cl)c3)Cc3ccco3)c(C)c2c1 | inactive
CCC(C)(C)NC(=O)CN(C(=O)CNS(=O)(=O)c1ccccc1)c1ccccc1 | inconclusive [inhibitor, full curve, poor fit]
O=C(CCC1CCCC1)c1c(O)c2ccccc2oc1=O | inconclusive [inhibitor, full curve, poor fit]
CCOC(=O)C1CCN(C2=C(NS(=O)(=O)c3ccc(Cl)cc3)C(=O)c3ccccc3C2=O)CC1 | inactive
Cc1ccc2oc(C(=O)NCC(c3ccco3)N(C)C)c(C)c2c1 (centres undefined) | inconclusive [inhibitor, partial curve, poor fit]
COc1ccccc1CNC(=O)CNCCc1ccc(OC)c(OC)c1 | inconclusive [inhibitor, full curve, poor fit]

Structure (SMILES) | Potency
Clc1cccc(N2CCN(c3nc4ccccc4c4nc(-c5ccccc5)nn34)CC2)c1 | inactive
CCOc1ccc(-c2nc(CSCC(=O)NCCc3ccccc3)c(C)o2)cc1 | inactive
O=C(O)C1=CC[C@@H](c2ccc(Cl)cc2)N(S(=O)(=O)c2ccc(Cl)cc2)[C@H]1c1ccc(F)cc1 | inconclusive [inhibitor, single point]
O=[N+]([O-])c1ccc(N2CCN(S(=O)(=O)c3ccc4ccccc4c3)CC2)cc1NCC1CCCO1 (centres undefined) | inconclusive [inhibitor, single point]
O=C(NNC(=S)Nc1ccc(Br)cc1Cl)c1ccncc1 | inactive
C=CCOc1ccc(CNc2ccc3[nH]c(=O)[nH]c3c2)cc1OC | inactive
O=C(NC1CCCCC1)C(c1ccccc1)N(C(=O)c1csnn1)C1CCCC1 (centres undefined) | inconclusive [inhibitor, partial curve, poor fit]
CCOc1cc2[nH]c(=O)n(CCC(=O)N3CCN(c4ccccc4OC)CC3)c(=O)c2cc1OCC | inactive
CC(NC(=O)C12CC3CC(C)(CC(C)(C3)C1)C2)c1ccncc1 (centres undefined) | inactive
COC(=O)Cn1cnc2ccccc2c1=O | inconclusive [inhibitor, full curve, poor fit]
COCCN1Cc2cccc(C(=O)N3CCN(c4cc(C)ccc4C)CC3)c2C1=O | inconclusive [inhibitor, partial curve]
COc1ccc(S(=O)(=O)N(CCCN2CCOCC2)Cc2cccc3ccccc23)cc1 | inconclusive [inhibitor, full curve, poor fit]
CCN(Cc1ccc(C#CCCO)cc1)CC1CCCN(CCc2cccc(F)c2)C1 (centres undefined) | inactive
CCN(Cc1ccccc1)C(=O)c1c(-c2ccccc2Cl)noc1C | inconclusive [inhibitor, full curve, poor fit]
CN(C)S(=O)(=O)c1cccc(C(=O)OCC(=O)NC2CCCc3ccccc32)c1 (centres undefined) | inactive
O=C(O)COc1ccc(/C=N/NC(=O)/C(=C/C=C/c2ccccc2)NC(=O)c2ccccc2)cc1 | inconclusive [inhibitor, partial curve, poor fit]
Cc1ccc(-n2nnnc2-c2cnc(N3CCCC3)nc2C(F)(F)F)cc1 | inactive
Cc1cc(S(=O)(=O)N2CCN(c3ccccc3C)CC2)ccc1F | inconclusive [inhibitor, partial curve]
CCOC(=O)c1ccc(OCc2c(C)noc2C)cc1 | inconclusive [inhibitor, partial curve, poor fit]
CCNC(=O)C1=C(O)c2sccc2N(C)S1(=O)=O | inconclusive [inhibitor, full curve, poor fit]
CN1CCN(C(=O)c2ccccc2-c2ccccc2C(=O)O)CC1 | inconclusive [inhibitor, full curve, poor fit]
O=C(CCc1nnc(CCc2ccccc2)o1)N1CCCC1c1nccs1 (centres undefined) | inactive
COC(=O)C1(C)NC(c2ccccc2F)C2C(=O)N(c3ccccc3)C(=O)C21 (centres undefined) | inconclusive [inhibitor, full curve, poor fit]
